The supplement of paper PMC8728848
The other results are listed elsewhere or left out.

Legend:
Experiment in all cases: glycan array binding signal (z-score within array); higher = stronger binding
Settings in all cases: glycan notation: IUPAC condensed, linker removed
[1] = target: Fuc(a1-2)Gal
Method in brief: (§1)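 Negative Z-scores can be read as non-binding. The Z-score is calculated within each array and then averaged across arrays of one protein sequence at different concentrations or buffers and across linkers. Arrays, 3228 in all, were curated from the Consortium for Functional Glycomics database and kept only where the protein sequence was available.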

[2] = target: Fuc(a1-2)Gal(b1-3)GalNAc
Method in brief: as §1

[3] = target: Fuc(a1-2)Gal(b1-3)GalNAc(a1-3)[Fuc(a1-2)]Gal(b1-4)Glc
Method in brief: as §1

[4] = target: Fuc(a1-2)Gal(b1-3)GalNAc(a1-3)[Fuc(a1-2)]Gal(b1-4)GlcNAc
Method in brief: as §1

[5] = target: Fuc(a1-2)Gal(b1-3)GalNAc(b1-3)Gal
Method in brief: as §1

[6] = target: Fuc(a1-2)Gal(b1-3)GalNAc(b1-3)Gal(a1-4)Gal(b1-4)Glc
Method in brief: as §1

[7] = target: Fuc(a1-2)Gal(b1-3)GalNAc(b1-4)[Neu5Ac(a2-3)]Gal(b1-4)Glc
Method in brief: as §1

[8] = target: Fuc(a1-2)Gal(b1-3)GlcNAc
Method in brief: as §1

[9] = target: Fuc(a1-2)Gal(b1-3)GlcNAc(b1-2)Man(a1-3)[Fuc(a1-2)Gal(b1-3)GlcNAc(b1-2)Man(a1-6)]Man(b1-4)GlcNAc(b1-4)GlcNAc
Method in brief: as §1

[10] = target: Fuc(a1-2)Gal(b1-3)GlcNAc(b1-2)Man(a1-3)[Fuc(a1-2)Gal(b1-3)GlcNAc(b1-2)Man(a1-6)]Man(b1-4)GlcNAc(b1-4)[Fuc(a1-6)]GlcNAc
Method in brief: as §1

[11] = target: Fuc(a1-2)Gal(b1-3)GlcNAc(b1-3)Gal(b1-4)Glc
Method in brief: as §1

[12] = target: Fuc(a1-2)Gal(b1-3)GlcNAc(b1-3)GalNAc
Method in brief: as §1

[13] = target: Fuc(a1-2)Gal(b1-3)GlcNAc(b1-3)[Fuc(a1-2)Gal(b1-3)GlcNAc(b1-6)]GalNAc
Method in brief: as §1

[14] = target: Fuc(a1-2)Gal(b1-3)GlcNAc(b1-3)[Gal(b1-4)GlcNAc(b1-6)]Gal(b1-4)Glc
Method in brief: as §1

[15] = target: Fuc(a1-2)Gal(b1-3)GlcNAc(b1-3)[Neu5Ac(a2-6)Gal(b1-4)GlcNAc(b1-6)]Gal(b1-4)Glc
Method in brief: as §1

[16] = target: Fuc(a1-2)Gal(b1-3)GlcNAc6S
Method in brief: as §1

[17] = target: Fuc(a1-2)Gal(b1-3)[Fuc(a1-4)]GlcNAc
Method in brief: as §1

[18] = target: Fuc(a1-2)Gal(b1-3)[Fuc(a1-4)]GlcNAc(b1-2)Man(a1-3)[Fuc(a1-2)Gal(b1-3)[Fuc(a1-4)]GlcNAc(b1-2)Man(a1-3)]Man(b1-4)GlcNAc(b1-4)GlcNAc
Method in brief: as §1

[19] = target: Fuc(a1-2)Gal(b1-3)[Fuc(a1-4)]GlcNAc(b1-2)Man(a1-3)[Fuc(a1-2)Gal(b1-3)[Fuc(a1-4)]GlcNAc(b1-2)Man(a1-6)]Man(b1-4)GlcNAc(b1-4)[Fuc(a1-6)]GlcNAc(b1-4)[Fuc(a1-6)]GlcNAc
Method in brief: as §1

[20] = target: Fuc(a1-2)Gal(b1-3)[Fuc(a1-4)]GlcNAc(b1-3)[Fuc(a1-3)[Gal(b1-4)]GlcNAc(b1-6)]Gal(b1-4)Glc
Method in brief: as §1

[21] = target: Fuc(a1-2)Gal(b1-3)[Fuc(a1-4)]GlcNAc(b1-3)[Gal(b1-4)GlcNAc(b1-6)]Gal(b1-4)Glc
Method in brief: as §1

[22] = target: Fuc(a1-2)Gal(b1-4)Glc
Method in brief: as §1

[23] = target: Fuc(a1-2)Gal(b1-4)Glc6S
Method in brief: as §1

[24] = target: Fuc(a1-2)Gal(b1-4)GlcNAc
Method in brief: as §1

[25] = target: Fuc(a1-2)Gal(b1-4)GlcNAc(b1-2)Man
Method in brief: as §1

[26] = target: Fuc(a1-2)Gal(b1-4)GlcNAc(b1-2)Man(a1-3)[Fuc(a1-2)Gal(b1-4)GlcNAc(b1-2)Man(a1-6)]Man(b1-4)GlcNAc(b1-4)GlcNAc
Method in brief: as §1

[27] = target: Fuc(a1-2)Gal(b1-4)GlcNAc(b1-2)Man(a1-3)[Fuc(a1-2)Gal(b1-4)GlcNAc(b1-2)Man(a1-6)]Man(b1-4)GlcNAc(b1-4)[Fuc(a1-6)]GlcNAc
Method in brief: as §1

[28] = target: Fuc(a1-2)Gal(b1-4)GlcNAc(b1-2)[Fuc(a1-2)Gal(b1-4)GlcNAc(b1-4)]Man(a1-3)[Fuc(a1-2)Gal(b1-4)GlcNAc(b1-2)Man(a1-6)]Man(b1-4)GlcNAc(b1-4)GlcNAc
Method in brief: as §1

[29] = target: Fuc(a1-2)Gal(b1-4)GlcNAc(b1-3)Gal(b1-4)GlcNAc
Method in brief: as §1

[30] = target: Fuc(a1-2)Gal(b1-4)GlcNAc(b1-3)Gal(b1-4)GlcNAc(b1-2)Man(a1-3)[Fuc(a1-2)Gal(b1-4)GlcNAc(b1-3)Gal(b1-4)GlcNAc(b1-2)Man(a1-6)]Man(b1-4)GlcNAc(b1-4)GlcNAc
Method in brief: as §1

B1: PX14367A-bth-493-35-493 (Bacteroides thetaiotaomicron) (protein)
chain: VSSDQVAVAGNAERLFNGAWYNLFEYGTTYANIGYRALQCQDDMMASDVVSRPKYGFNSSYQFNDVAIPSDGRTSFAWYLIYKTIDNCNTAISIKGDSEELRQAQGQALALRAFCYLHLVQHYQFTYLKDKDAPCVPIYTEPTTSGTKPKGKSTVAQVYQQIFDDLNLAQDYLTNYVRKGDGQKFKPNTDVVNGLMARAYLLTGQWGEAAKAAEAARKGYSLMTTTAEYEGFNNISNKEWIWGSPQTLSQSDASYNFYYLDATYVGAYSSFMADPHLMDTFVKGDIRLPLFQWMREGYLGYKKFHMRSDDTADLVLMRSAEMYLIEAEAKVRDGVALDQAVAPLNTLRTARGVGNYDVTGKTKEQVIDEILMERRRELWGEGFGITDVLRNQKAVERMALSEDMQKTEVDCWQEGGSFAKRNPLGHWFLNFPDGKAFSANSSYYLYAIPEKEINANPNL
glycan array binding signal (z-score) [1]: -0.135
glycan array binding signal (z-score) [2]: -0.477
glycan array binding signal (z-score) [3]: -0.547
glycan array binding signal (z-score) [4]: -0.426
glycan array binding signal (z-score) [5]: -0.312
glycan array binding signal (z-score) [6]: 0.208
glycan array binding signal (z-score) [7]: -0.469
glycan array binding signal (z-score) [8]: -0.702
glycan array binding signal (z-score) [9]: 2.29
glycan array binding signal (z-score) [10]: -0.196
glycan array binding signal (z-score) [11]: -0.473
glycan array binding signal (z-score) [12]: -0.439
glycan array binding signal (z-score) [13]: 0.845
glycan array binding signal (z-score) [14]: 0.288
glycan array binding signal (z-score) [15]: -0.361
glycan array binding signal (z-score) [16]: -0.417
glycan array binding signal (z-score) [17]: -0.043
glycan array binding signal (z-score) [18]: -0.095
glycan array binding signal (z-score) [19]: -0.389
glycan array binding signal (z-score) [20]: -0.004
glycan array binding signal (z-score) [21]: -0.403
glycan array binding signal (z-score) [22]: -0.535
glycan array binding signal (z-score) [23]: 0.408
glycan array binding signal (z-score) [24]: -0.413
glycan array binding signal (z-score) [25]: -0.165
glycan array binding signal (z-score) [26]: 2.44
glycan array binding signal (z-score) [27]: 0.806
glycan array binding signal (z-score) [28]: 0.91
glycan array binding signal (z-score) [29]: -0.336
glycan array binding signal (z-score) [30]: 0.127
